PubChem BioAssay AID493208 (National Center for Advancing Translational Sciences (NCATS), 2011)
About 340 (0.77%) of roughly 44,000 compounds were called active. About 5% were inconclusive and are not listed. Calls follow the shape of the dose curve; as a rule, active = well fitted inhibition curve with a large enough effect; inconclusive = small, poorly fitted or top-dose-only effect; inactive = flat fitted curve, though single readings scatter. This is one part of the list.

Test: Acumen qHTS Assay for Inhibitors of the mTORC1 Signaling Pathway in MEF (Tsc2-/-, p53-/-) Cells: Sytravon;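 also: plate controls were DMSO for no effect and rapamycin for full effect; nearly all actives have a fitted effect of over 50% in size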
Conditions: phospho-rpS6 immunofluorescence/PI, 24 h; series mostly up to 38.3 µM; activity change, negative = inhibition: at the top concentration
Outline: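 Compounds act on Tsc2-/-, p53-/- fibroblasts carrying an empty vector for 24 h before fixation and dual staining for phospho-S6 and DNA (propidium iodide). Values are percentages of cells above a rapamycin-defined pS6/PI threshold.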

Activity change, negative = inhibition, inactive:
COc1ccc(CNC(=O)c2ccc3c(c2)CCN3S(=O)(=O)c2ccc(C)cc2)cc1 -21.3%
Cc1c(C(=O)Nc2ccc(C(C)C)cc2)sc2nc[nH]c(=O)c12 -2.24%
Cc1cccc(NC(=O)c2oc3ccccc3c2NC(=O)c2cc(=O)c3cc(Cl)ccc3o2)c1 4.1%
Cn1c(SCC(=O)c2ccc(F)cc2)nnc1-c1ccccc1Br -13.5%
COc1ccccc1C(=O)Nc1c(C(=O)N(C)c2ccccc2)sc2nc(C)cc(C)c12 6.85%
Cn1c(=O)c2sccc2n2c(CCC(=O)NCc3ccccc3Cl)nnc12 1.16%
CN(Cc1ccccc1)C(=O)C1CCN(S(=O)(=O)c2ccc3nc4c(c(C(=O)O)c3c2)CCCC4)CC1 0.0393%
COc1ccc(CNC(=O)C2CCN(C(=O)N3CC(C)Oc4ccc(C)cc43)CC2)cc1 (stereo not given) -3.29%
O=C(CCS(=O)(=O)c1cc(Br)cc2c1N(C(=O)C1CC1)CC2)Nc1ccc(C(F)(F)F)cc1 0.504%
COc1ccc(-c2nc(Cn3c(SCc4ccccc4F)nc4ccncc43)c(C)o2)cc1OC -1.93%
Cc1ccc(S(=O)(=O)Nc2nc3n(n2)C(c2ccccc2Cl)C=C(c2ccccc2)N3)cc1 (stereo not given) -4.84%
CCOc1ccc(C(=O)Nc2cc(-c3cn4cccnc4n3)ccc2C)cc1OCC -0.124%
CCn1cc(C(=O)NCCc2ccc(C)cc2)c(=O)c2cc(S(=O)(=O)N3CCCCC3)ccc21 -14.5%
Cc1cc(C)cc(NC(=O)C2CCC(CNS(=O)(=O)c3ccc4c(c3)C(C)(C)C(=O)N4C)CC2)c1 (stereo not given) -15.9%
O=C(Cn1c(=O)n(-c2ccc(Cl)cc2)c(=O)c2oc3ccccc3c21)Nc1ccccc1 2.21%
CC1CCN(c2ncnc3c2nnn3C)CC1 -4.23%
CCN(CC)S(=O)(=O)c1nnc(NC(=O)c2ccc(C(C)C)cc2)s1 -8.88%
O=C(c1ccco1)N1CCN(c2nc3c(Cl)cccc3s2)CC1 -4.31%
COc1cccc(C(=O)Nc2ccccc2-c2nnc(-c3cc(OC)ccc3Br)o2)c1 6.26%
O=C(Cc1ccc(Cl)cc1)NCC(c1cccs1)S(=O)(=O)c1ccc(F)cc1 (stereo not given) 1.64%
Cn1cnc(S(=O)(=O)N2CCC(C(=O)NCc3ccc(F)cc3)CC2)c1 11.2%
COc1ccc(C2=C(C)C(=O)N(Cc3ccc(C(=O)Nc4cc(C)ccc4C)cc3)S2(=O)=O)cc1 -8.45%
Cc1nn2c(=O)cc(COC(=O)c3cccc(NC(=O)c4ccc(C(C)(C)C)cc4)c3)nc2s1 0%
COc1cccc(C(=O)Nc2ccc3nc(N4CCC(C)CC4)cc(C)c3c2)c1 -12.7%
CCOC(=O)c1[nH]c2c(c1Cc1ccccc1OC)C(=O)CC(c1ccc(OCC)cc1)C2 (stereo not given) 0.306%
COc1ccc(C(=O)CCC(=O)Nc2ccc(OC)c(Cl)c2)cc1 -6.5%
COc1ccc(C2=CC(c3cccc(C)c3)n3nnnc3N2)cc1 (stereo not given) -1.23%
CCN(CC)S(=O)(=O)c1ccc2c(c1)N(CC(=O)Nc1ccc(C)cc1C)C(=O)C1CCCN21 (stereo not given) 0%
CC(C)NC(=O)c1ccccc1NC(=O)c1nsc2ccccc12 -1.21%
COc1ccccc1N1CCN(c2nc3ccc(C)cc3n3nnnc23)CC1 -2.06%
Cc1ccc(S(=O)(=O)c2nc(S(C)(=O)=O)sc2NCc2ccccc2)cc1 -3.86%
CCOC(=O)c1c(C)oc2nc(C)nc(NCCc3ccc(SC)cc3)c12 2.81%
O=C(Cc1ccc(NC(=O)N2CCCCc3ccccc32)cc1)NCc1ccccc1 -27.8%
CCCCN(CCCC)CCNC(=O)c1cc(-c2cccnc2)nc2ccc(S(=O)(=O)N3CCC(C)CC3)cc12 -0.694%
CCOc1ccc2nc(N3CCCC(C(=O)Nc4cccc(Cl)c4C)C3)sc2c1 (stereo not given) -8.03%
CCc1cc2c(cc3c(=O)n(CC(=O)N4CCCCC4)ncn32)s1 -7.59%
Cc1ccc(Cl)cc1NC(=O)CN1C(=O)COc2ccc(S(=O)(=O)N3CCOCC3)cc21 1.58%
CCCCn1cc(S(=O)(=O)c2ccc(F)cc2)c(=O)c2ccccc21 -0.792%
COc1ccccc1CNC(=O)c1ccc(-c2nc(CS(=O)c3ccccc3)c(C)o2)cc1 (stereo not given) -1.74%
Cc1cc(F)ccc1NC(=O)C1CCCN(S(=O)(=O)c2ccc3c(c2)CCCC(=O)N3)C1 (stereo not given) -0.0858%
Cc1cnc2c(c1SCC(=O)Nc1ccc(F)cc1F)c(=O)n(C)c(=O)n2C -0.954%
COc1ccc(N(Cc2cccs2)C(=O)COc2ccc(C(C)C)cc2)cc1 -15.9%
COc1ccc(S(=O)(=O)c2c(Nc3ccc(C)cc3)sc(C(=O)c3ccc4c(c3)OCO4)c2N)cc1 0.394%
CN(C)c1ccc(CN(CC2CCCO2)C(=O)c2ccc(Br)cc2)cc1 (stereo not given) 2.83%
Cc1ccc2[nH]c3c(=O)n(CC(=O)N4CCN(c5cccc(C(F)(F)F)c5)CC4)ncc3c2c1 -3.13%
CCOc1ccc(N2C(=O)N(Cc3c(F)cccc3Cl)c3ccccc3S2(=O)=O)cc1 -6.79%
COc1cccc(CNC(=O)CN2C(=O)CSc3c2c(C)nn3-c2ccccc2)c1 -4.18%
Cc1ccc(-n2c(=O)c3ccc(C(=O)NCc4ccccc4Cl)cc3n(CC(=O)Nc3cccc(F)c3)c2=O)cc1 0.981%
Cc1ccc2[nH]c(CSc3nnc(COc4ccccc4C)n3C)cc(=O)c2c1 -14.2%
O=C(COCc1cc(-c2cccs2)on1)Nc1ccc(OC(F)(F)F)cc1 -2.57%
CCCCOc1ccc(NC(=O)Cn2nnnc2-c2ccccc2F)cc1 0.999%
Cc1cc2c(cc1C)NC(CC(=O)Nc1ccccc1SC(F)(F)F)C(=O)N2 (stereo not given) -17.5%
COc1cc(OC)c(NC(=O)Cn2cnc3sc(C)c(S(=O)(=O)N4CCN(C)CC4)c3c2=O)cc1Cl -0.962%
Cc1ccc(S(=O)(=O)c2nc(-c3ccco3)oc2SCC(C)C)cc1 -11.8%
COc1ccc2ncc3c(-c4ccc(C)c(C)c4)nn(CC(=O)NC4CCCCC4)c3c2c1 -0.476%
CCc1ccc(NC(=O)c2nn(-c3ccc(C)cc3)c(=O)n(C)c2=O)cc1 2.97%
CC(C)(C)OC(=O)N1CCC(c2c(C(=O)Nc3ccc4c(c3)OCCO4)cnn2-c2ccccc2)CC1 3.92%
COC(=O)NCc1c(C)nn(-c2ccccc2)c1-n1cccc1 -10.4%
COc1ccc(CNC(=O)c2cc3c(s2)-c2c(C)cccc2OC3)cc1 0.0447%
CCOC(=O)c1oc2c(c1C)-c1nn(Cc3ccccc3Cl)cc1CC2 -2.52%
